PubChem BioAssay AID360 (National Center for Advancing Translational Sciences (NCATS), 2006)
Out of some 48,000 compounds screened, about 550 (1.1%) were called active. Another 4% or so got no clear call; they are omitted. Cut-off read from the data, not from the text of the source: active = potency below about 15 µM; inconclusive = mostly about 16 µM to 33 µM; inactive = weaker than that. The list shows a part of the results.

Biological target: Lysosomal acid glucosylceramidase (Homo sapiens) (UniProt P04062)
Chain of UniProt P04062 (P04062 whole entry, looked up): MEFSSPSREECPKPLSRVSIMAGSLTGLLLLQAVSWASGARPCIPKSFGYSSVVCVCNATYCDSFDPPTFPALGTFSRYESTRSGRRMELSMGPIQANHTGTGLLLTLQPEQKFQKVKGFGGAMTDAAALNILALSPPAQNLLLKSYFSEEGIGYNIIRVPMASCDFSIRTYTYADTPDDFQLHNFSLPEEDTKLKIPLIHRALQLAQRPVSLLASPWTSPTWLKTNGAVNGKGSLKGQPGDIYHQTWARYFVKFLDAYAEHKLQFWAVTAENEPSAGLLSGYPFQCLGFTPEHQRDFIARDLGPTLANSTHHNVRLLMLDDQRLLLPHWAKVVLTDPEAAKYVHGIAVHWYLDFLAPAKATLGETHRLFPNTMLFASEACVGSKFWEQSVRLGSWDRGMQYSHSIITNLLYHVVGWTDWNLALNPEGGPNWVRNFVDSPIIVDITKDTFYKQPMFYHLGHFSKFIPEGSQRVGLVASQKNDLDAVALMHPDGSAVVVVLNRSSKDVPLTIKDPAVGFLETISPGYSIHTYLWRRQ
Assay: Glucocerebrosidase;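 note: the screen sought inhibitors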
Conditions: purified enzyme, resorufin glucoside fluorescence (screen aimed at inhibitors), 20 min
How it was run: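 Normal human glucocerebrosidase (0.2 nM final) was assayed with resorufin β-D-glucopyranoside (30 uM final) in 50mM citric acid/KH2PO4, 10mM sodium taurocholate, 0.01% tween-20, pH 5.9. Compounds were titrated; fluorescence (Ex 548, Em 600) read after 20 min at RT.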
Potency is the fitted concentration of half-maximal effect.

Potency, inactive:
CCOC(=O)c1c(CN2CCCCC2)oc2ccc(O)cc12 > 76.9 µM, COc1ccc(N(CC(=O)N2CCc3ccccc32)S(=O)(=O)c2c(C)n[nH]c2C)cc1 > 76.9 µM, CCC(=O)Nc1nc2cc(OC)ccc2s1 > 76.9 µM, COCCOC(=O)C1=C(C)NC2=C(C(=O)CC(c3cccs3)C2)C1c1ccsc1 (configuration not stated) > 76.9 µM, COc1ccc(OC)c(S(=O)(=O)N(C)CC(=O)N2CCN(c3cccc(Cl)c3)CC2)c1 > 76.9 µM, COc1ccccc1NC(=O)CSc1nnc(-c2ccco2)n1Cc1ccco1 > 76.9 µM, CC(C)CNC(=O)c1cccc(NC(=O)c2ccc(NC(=O)c3ccco3)cc2)c1 > 76.9 µM, CNC(=O)Nc1ccccc1C(=O)NCc1ccccc1 > 76.9 µM, CN1CCN(C(=O)c2ccc(NS(=O)(=O)c3ccccc3)cc2)CC1 > 76.9 µM, CCOc1ccc(OCc2ccc(C(=O)OCc3ccccn3)o2)cc1 > 76.9 µM, CC(C)NC(=O)CSc1nnc(-c2ccc(S(=O)(=O)N3CCCC3)cc2)n1CC1CCCO1 (configuration not stated) > 76.9 µM, O=C(c1ccco1)N1CCN(C(=O)C2CC(c3ccc(Cl)c(Cl)c3)=NO2)CC1 (configuration not stated) > 76.9 µM, CCOC(=O)C1=C(C)N(CCO)C(=O)NC1c1cccc(O)c1 (configuration not stated) > 76.9 µM, CC(=O)Cc1nsc(NC(=O)c2ccc(-c3ccc(Cl)c(C(F)(F)F)c3)o2)n1 > 76.9 µM, COc1ccc(-c2nnc(SCC(=O)N3CCCc4ccccc43)o2)cc1OC > 76.9 µM, Cc1ccc2c(c1)nnn2C1CCN(CC(=O)N2c3ccccc3CC2C)CC1 (configuration not stated) > 76.9 µM, O=C(CN1CCCc2ccccc21)NC(=O)NCc1ccco1 > 76.9 µM, O=C(CN1CCC(n2nnc3cc(F)ccc32)CC1)N1CCCc2ccccc21 > 76.9 µM, O=C(CCCCn1c(=O)c2ccccc2n(CC(=O)Nc2ccc(F)cc2)c1=O)NCc1ccco1, COc1cccc(OCc2nnc(SCC(=O)OCc3ccccc3)o2)c1 > 76.9 µM, Cc1ccc(OCCSc2nnc(NC(=O)c3ccco3)s2)cc1 > 76.9 µM, O=S(=O)(NCC1CCCO1)c1ccc(Cl)c(C(F)(F)F)c1 (configuration not stated) > 76.9 µM, O=C(OC(C(=O)NCc1cccs1)c1ccccn1)c1cccs1 (configuration not stated) > 76.9 µM, CC(=O)Nc1ccc(C(=O)Cn2nnc3ccccc3c2=O)cc1 > 76.9 µM, NC(=O)CSc1nnc(Cc2csc(Nc3ccccc3)n2)n1Cc1ccccc1, O=C(NCc1ccco1)c1ccccc1Br > 76.9 µM, Cc1cc(C(=O)COC(=O)CN(C)S(=O)(=O)c2ccc(Cl)cc2)c(C)n1Cc1cccs1 > 76.9 µM, O=C(CCn1nnc(-c2cccs2)n1)NC1CCCCC1 > 76.9 µM, CCCC(c1nnnn1Cc1ccco1)N1CCN(C(=O)c2ccco2)CC1 (configuration not stated) > 76.9 µM, CC(=O)N1CCc2cc(S(=O)(=O)NCCC(=O)N3CCN(c4ccccn4)CC3)ccc21 > 76.9 µM, O=C(C1CCCCC1)N1CCC(c2nc3ccccc3[nH]2)CC1 > 76.9 µM, CC1(C)C(c2cccs2)=[N+]([O-])C2(CCCCC/C2=N\O)N1O (configuration not stated) > 76.9 µM, C=CCn1c(COc2ccccc2)nnc1SCC(=O)NCC(=O)OCC > 76.9 µM, O=c1c2ccccc2nc(SCc2cn3ccsc3n2)n1-c1ccccc1, O=C(CNS(=O)(=O)c1cccc2nsnc12)NC1CCCCC1 > 76.9 µM, CC(=O)Nc1sc(NC(=O)c2ccccc2)nc1-c1cccs1 > 76.9 µM, COc1ccccc1NC(=O)CCc1c(C)[nH]c(=O)c(C#N)c1C > 76.9 µM, CCOc1ccccc1C(=O)NCC(=O)OCC(=O)NCCc1ccc(S(N)(=O)=O)cc1 > 76.9 µM, O=c1c2cn[nH]c2[nH]c(=S)n1-c1ccccc1F > 76.9 µM, CCN1CCN(C(=O)c2ccc3c(=O)n(Cc4ccccc4OC)c(=S)[nH]c3c2)CC1 > 76.9 µM, COc1ccc(CNC(=O)c2cc3c(=O)n4ccccc4nc3n(Cc3cccnc3)c2=N)cc1 > 76.9 µM, Cn1cc(C(=O)NCCN2CCN(c3cccc(Cl)c3)CC2)c2c3ccccc3n(C)c2c1=O > 76.9 µM, COc1ccc(C)cc1S(=O)(=O)N(CC(=O)N1CCOCC1)Cc1ccccc1 > 76.9 µM, Cc1oc(C)c(C(N)=O)c1C(N)=O > 76.9 µM, Cc1cc(C)n(-c2nc(C)nc3sc4c(c23)CCC(C)C4)n1 (configuration not stated) > 76.9 µM, CC(=O)c1c(C(C)=O)c(C)n(Cc2ccc3c(c2)OCO3)c1C > 76.9 µM, CCN(CC)c1ccc(NC(=O)c2ccco2)cc1 > 76.9 µM, CCCOc1ccc(N2CC(C(=O)Nc3ccccc3F)CC2=O)cc1 (configuration not stated) > 76.9 µM, COc1ccc2nc(NC(=O)CSC3=NCCS3)sc2c1 > 76.9 µM, CCCC(=O)Nc1ccccc1NC(C)=O > 76.9 µM, COC(=O)CNC(=O)COC(=O)c1cc(Cl)cc(Cl)c1N > 76.9 µM, C=CCSC1=C(C#N)C(c2ccccc2C)CC(=O)N1 (configuration not stated) > 76.9 µM, O/N=C1\CC/C(=N\O)c2nn(-c3ccccc3Cl)nc21 > 76.9 µM, O=S(=O)(c1ccc2c(c1)nc1n2CCC1)N1CCOCC1 > 76.9 µM, Cc1ccc(-n2c3c(cc(C(=O)NC4CCSC4=O)c2=O)C(=O)CCC3)cc1 (configuration not stated) > 76.9 µM, Cc1ccc2oc(=O)cc(CN3CCOCC3)c2c1 > 76.9 µM, N#Cc1nc(-c2ccc(Cl)cc2)oc1NCc1cccc2c1OCO2 > 76.9 µM
